Results on 61 compounds are retold here after PubChem BioAssay AID485344 (National Center for Advancing Translational Sciences (NCATS), 2010).

Each structure is given as a SMILES string. Hit rate of the full screen: of about 340,000 compounds, about 6,900 (2%) were called active. Cut-off read from the data, not from the text of the source: active = inhibition above about 30%; inactive = below that, where a call was filed. The entries are a selection whose mix differs from that of the whole data set. The source gives no active or inactive call for entries shown without one.

In this experiment the target is D(2) dopamine receptor (Homo sapiens) (UniProt P14416). The experiment can be described thus: HTS Assay for Allosteric Antagonists of the Human D2 Dopamine Receptor: Primary Screen for Antagonists. Note: 0% is about no effect. To be noted: HEK293 TREx D2 cells, calcium flux, dopamine EC80; at 10 µM; stronger effect = higher value. The text has this: NIH Chemical Genomics Center [NCGC] NIH Molecular Libraries Probe Centers Network [MLPCN] MLPCN Grant: NS064831-01 Assay Submitter (PI): David Sibley Dopamine receptors (DARs) are involved in the etiology and/or therapy of a number of neuropsychiatric and endocrine disorders. For instance, all receptor-based antiparkinsonian drugs work via stimulating the D2 DAR subtype whereas all FDA-approved antipsychotic agents are antagonists of this receptor. […] There are three different types of allosteric modulators that we are seeking, two of which will stimulate or augment receptor signaling, allosteric agonists and potentiators, while the third, allosteric antagonists, will attenuate receptor signaling. The present primary screening assay measures compound antagonism after an EC80 addition of dopamine by tracking calcium flux in a […], inducible Hek293 Trex D2 cell line.
Sequence of UniProt P14416 (P14416 whole entry, looked up): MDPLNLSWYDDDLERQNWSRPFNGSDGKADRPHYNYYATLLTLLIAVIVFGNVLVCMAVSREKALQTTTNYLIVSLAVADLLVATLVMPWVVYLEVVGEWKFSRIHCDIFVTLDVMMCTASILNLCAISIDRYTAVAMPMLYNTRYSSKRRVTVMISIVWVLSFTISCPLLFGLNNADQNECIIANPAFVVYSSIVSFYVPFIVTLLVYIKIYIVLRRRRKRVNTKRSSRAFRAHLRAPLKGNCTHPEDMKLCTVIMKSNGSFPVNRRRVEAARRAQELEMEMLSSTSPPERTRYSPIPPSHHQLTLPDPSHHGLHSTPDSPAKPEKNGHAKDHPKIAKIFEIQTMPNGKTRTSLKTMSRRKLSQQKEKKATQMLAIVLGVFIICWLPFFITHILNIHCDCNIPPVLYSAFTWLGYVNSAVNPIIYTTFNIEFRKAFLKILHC
Freshly passaged cells are plated in 1536 well black, clear bottom plates at a density of 4000 cells/well in 3 ul of complete media containing 1x tetracycline inducer. After an overnight incubation at 30 C in 5% CO2, cells are loaded with 2 ul of the no wash Calcium Assay Kit (ABD Bioquest) and incubated at room temperature for 30 to 90 minutes. Agonist read: A 10 cycle (1 second/cycle) baseline measurement is taken and then the FDSS online 1536 pintool delivers 23 nl of compound library (as well as dopamine controls) to the plate. The plate is measured for kinetically at 1 cycle/sec for 180 seconds. Following the 180 second read, 1 ul of an EC80 (negative modulation assay) is delivered by an onboard pipette head. Measurements are taken kinetically for an additional 180 seconds.
(In general: A change in cytosolic calcium serves as a functional read-out for many receptors and channels.)
By inhibition is commonly meant the relative decrease from the control value, in per cent. For `CCOc1cc(S(=O)(=O)NCCc2c(C)[nH]c3ccc(C)cc23)ccc1F`, the inhibition was -19.5%.

In the case of `COc1ccc(C)cc1NC(=O)c1sc2nc(-c3ccc(F)cc3)cn2c1C`, the inhibition is 8.38%.

In the case of `Cc1ccc(Cn2c(C)c3cnn(CC(=O)O)c(=O)c3c2C)cc1`, the inhibition was -1.51%.

For `O=C(Cn1cc(SCc2ccc(F)cc2)c2ccccc21)N1CCCCC1`, the inhibition came to 9.92%.

Regarding `CCCSc1oc(-c2cccs2)nc1S(=O)(=O)c1ccc(C)cc1`, the inhibition was found to be 6.5%.

Turning to `COc1ccc(NC(=O)Cn2c(=O)n(CCCCCC(=O)NCc3ccc4c(c3)OCO4)c(=O)c3sccc32)cc1Cl`, the inhibition was 1.68%.

With `O=C(Nc1cccc(C(=O)OCc2cc(=O)n3c4c(sc3n2)CCCC4)c1)c1ccc(Cl)cc1`, the inhibition is 9.13%.

In the case of `CC1(C)Cc2c(sc3nc(SCC(=O)NCc4ccco4)n(-c4ccccc4)c(=O)c23)CS1`, the inhibition is active: 30.4%.

As to `CCc1nnc(SCc2cccc(Cl)c2)c2cc3sccc3n12`, the inhibition is -5.07%.

`CCOc1cccc(C(=O)Nc2ccc3oc(-c4ccncc4)nc3c2)c1`: the inhibition was determined as 0.369%.

In the case of `Cc1cc(C)c(NC(=O)CSc2nc3nccnc3c(=O)n2CCc2c[nH]c3ccccc23)c(C)c1`, the inhibition was -6.34%.

Take `COc1cc(OC)c(NS(=O)(=O)c2c(C)nc3sc(C)cn3c2=O)cc1Cl`: the inhibition worked out at 3.92%.

For the compound `COc1ccc(-c2cc(OC(=O)c3ccccc3Cl)c3c(C)oc(C)c3c(=O)c2)cc1OC`, the inhibition turned out to be 9.43%.

For `COc1ccc(CNC(=O)CN2C(=O)COc3ccc(S(=O)(=O)N4CCCCC4)cc32)cc1`, the inhibition was 2.1%.

As for `Cc1ccc(-c2noc(-c3cccnc3NCc3ccco3)n2)cc1`, the inhibition amounted to 7.41%.

In the case of `COc1ccc2c(CNC3CCCCCC3)c(C(=O)O)n(Cc3ccc(C)cc3)c2c1`, the inhibition was -13%.

As to `Cc1cc(F)ccc1NC(=O)Cn1nc(N2CCN(c3ccccc3)CC2)ccc1=O`, the inhibition was determined as 2.06%.

Take `COc1ccc(CCNC(=O)C(=O)NCC(c2cccs2)S(=O)(=O)c2cccs2)cc1` (stereo unspecified): the inhibition is -26.4%.

In the case of `COc1ccc(C(=O)n2nc(-c3cccnc3)nc2NCc2ccccc2)cc1OC`, the inhibition worked out at 9.91%.

Regarding `CCOc1ccccc1Nc1nc2ccccc2nc1NS(=O)(=O)c1ccc(Cl)cc1`, the inhibition is 2.39%.

For `CCOC(=O)c1oc2cccc(OC(C)=O)c2c1C`, the inhibition was active: 36.7%.

In the case of `COc1ccccc1CNc1ncnc2onc(-c3ccc(F)cc3)c12`, the inhibition is -1.62%.

Consider `CC(=O)N1CCCc2cc(S(=O)(=O)N3CCC(C(=O)Nc4c(C)cccc4C)CC3)ccc21`, for which the inhibition was -9.43%.

`COc1cccc(-c2cc(=O)c3cc(NC(C)=O)ccc3[nH]2)c1`: the inhibition was active: 33.8%.

In the case of `COc1ccc(-c2nc(CN3CCC(C(=O)NCc4ccc(C)cc4)CC3)c(C)o2)cc1OC`, the inhibition is -21.9%.

`CCOc1ccc(CNC(=O)CCCn2c(=O)c3cccn3c3ccccc32)cc1`: the inhibition was -7.9%.

For the compound `CCOc1ccc(NC(=O)c2cn(C3CCCCC3)c(=O)c3c2c2ccccc2n3C)cc1`, the inhibition was -0.156%.

Turning to `Cc1cccc(C(=O)Nc2ccccc2OCc2cc(=O)n3ccccc3n2)c1`, the inhibition amounted to 5.34%.

On to `COc1ccc(CCC(C)N2CCC(Oc3ccc(C(=O)N4CCCC4)cc3)CC2)cc1` (stereo unspecified), for which the inhibition is active: 30.4%.

`Cc1ccc(-c2nnc(SCC(=O)NC(C)(C)C)nc2-c2ccc(C)cc2)cc1`: the inhibition came to 18.5%.

Turning to `Cn1c(=O)c2c(nc(NCCc3ccccc3)n2Cc2ccccc2Br)n(C)c1=O`, the inhibition was -10.9%.

`Cc1onc(-c2ccccc2)c1C(=O)OCCOc1ccccc1F`: the inhibition was active: 37.6%.

`COc1cccc2c1cc1c(=O)n(CC(=O)N3CCN(c4ccc(F)cc4)CC3)nc(C)n12`: the inhibition stood at 7.45%.

On to `CS(=O)(=O)N1CCN(c2ccccc2NC(=O)c2cccnc2Cl)CC1`, for which the inhibition is active: 32.8%.

In the case of `COc1ccc2nc(SCC(O)c3cccc(Br)c3)[nH]c2c1` (stereo unspecified), the inhibition is 7.19%.

For the compound `CCCS(=O)(=O)c1nc(S(=O)(=O)c2ccc(C)cc2)c(NCCCOC(C)C)s1`, the inhibition turned out to be 6.38%.

`Cc1ccc(Sc2ccc(N3CCCC(C(=O)Nc4ccc(F)cc4)C3)nn2)cc1` (stereo unspecified): the inhibition is 8.05%.

Regarding `Cc1nn(-c2ccc(N3CCCCC3)nn2)c(C)c1CCC(=O)NCc1ccccc1`, the inhibition amounted to 4.1%.

On to `CCN(CC)C(=O)CSc1nc2cc3c(cc2c(=O)n1CCCC(=O)NCc1ccc2c(c1)OCO2)OCO3`, for which the inhibition turned out to be 15.3%.

For the compound `COc1ccc(-c2cn3c(n2)sc2cc(C(=O)NCCCc4ccccc4)ccc23)cc1`, the inhibition was 20.4%.

Regarding `O=C(Cn1nc(N2CCN(c3ccccc3)CC2)ccc1=O)NCc1ccccc1F`, the inhibition was -3.25%.

As to `CCc1nc2ccccc2n1CCCCOc1cccc(C)c1`, the inhibition is -4.87%.

In the case of `CCCOc1ccc(NC(=O)CC2C(=O)N(c3ccc(OC)cc3)C(=O)N2CCc2ccncc2)cc1` (stereo unspecified), the inhibition was -1.63%.

As for `CCOC(=O)c1cc(-c2ccccc2)n(CCCC(=O)Nc2cccc(C)c2)c1C`, the inhibition is -9.16%.

As for `CC(C)(C)c1ccc(S(=O)(=O)c2cnc(SCC(=O)Nc3ccc4c(c3)OCCO4)[nH]c2=O)cc1`, the inhibition came to 7.54%.

`CC(C)CC(=O)NCC(c1ccc2c(c1)OCO2)N1CCN(c2ccc(F)cc2)CC1` (stereo unspecified): the inhibition was -0.969%.

As for `CCOC(=O)c1ccc(Oc2nc(C)nc3c2oc2ccccc23)cc1`, the inhibition is 3.71%.

On to `COC(=O)c1cc(NC(=O)CN(c2ccccc2OC)S(=O)(=O)c2ccccc2)ccc1Cl`, for which the inhibition is active: 35.6%.

`O=C(/C=C/c1ccccc1)Nc1nc2n(n1)C(c1ccc(Cl)cc1)C=C(c1ccccc1)N2` (stereo unspecified): the inhibition stood at 15.6%.

`Cc1nnsc1C(=O)Oc1ccc(C#N)cc1`: the inhibition is 6.32%.

`O=C(CN1C(=O)C2(SCC(=O)N2c2cccc(F)c2)c2ccccc21)NCc1ccccc1Cl` (stereo unspecified): the inhibition is -9.4%.

On to `COc1ccccc1N1CCN(CCCNC(=O)C2CCCN(c3ncnc4c3nc3n4CCCCC3)C2)CC1` (stereo unspecified), for which the inhibition was active: 76.1%.

On to `Clc1ccc(CN2CCc3nc(N4CCN(c5ccccn5)CC4)ncc3C2)cc1`, for which the inhibition was determined as 14.5%.

Take `Oc1ccc(-c2ccccc2)cc1CN1CCCCCC1`: the inhibition was active: 69%.

Turning to `Cc1ccc(CN2c3ccccc3-c3nc(SCC(=O)NCCc4ccccc4)ncc3S2(=O)=O)cc1`, the inhibition was determined as 3.75%.

For `Cn1nccc1C(=O)N1CCc2ccccc21`, the inhibition was active: 35.8%.

As for `O=C(Nc1ccc(C(F)(F)F)cc1)c1cc(S(=O)(=O)N2CCCc3ccccc32)ccc1F`, the inhibition stood at 16.6%.

In the case of `CCn1ccc2cc(S(=O)(=O)N3CCC(C(=O)NCC(C)c4ccccc4)CC3)ccc21` (stereo unspecified), the inhibition was -7.38%.

In the case of `COc1ccc(S(=O)(=O)Nc2cc(-c3cn4ccc(C)cc4n3)ccc2C)cc1OC`, the inhibition was -6.54%.

With `Cc1nnc2c3ccccc3nc(Nc3ccccc3C(=O)O)n12`, the inhibition is -9.14%.

With `Cc1ccc(NCc2cc3cc4c(cc3n(CC(=O)Nc3ccc(F)cc3F)c2=O)OCCO4)cc1`, the inhibition is -12.9%.
